# From ChEMBL document CHEMBL1201862, “PubChem BioAssay data set” (2004)
# About 2,700 (4.7%) of roughly 57,000 sequences were called active. Rule as the data show it: active = GI50 up to about 1.1 µM and inactive = higher. The list is a sample of the results. Measured potencies and affinities stand elsewhere.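 Values below derive from 48-hour exposures of cells grown in 96-well plates, with endpoints linearly interpolated between the two concentrations bracketing the appropriate inhibition level. GI50: concentration for 50% inhibition of growth.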
# System: NCI-H322M
# Test: NCI tumour cell line growth inhibition, 48 h
row,Substance,GI50 [µM]
1,"mu-(1,7-nanodiamine-N,N')bis-(cis-aminedichloroplatimum (II)), CHEMBL2146215",> 100
2,"[Bis(aminomethyl)tetramethylenesilane]tetrachloropaltinum(IV), CHEMBL2146189",20.6
3,"[Bis(aminomethyl)diethylsilane]tetrachloroplatinum(IV), CHEMBL2146203",21.5
4,"[Bis(aminomethyl)ethylmethylsilane]tetrachloroplatinum(IV), CHEMBL2146192",12.6
5,"cis-Bis[[(trimethylsilyl)methyl]amino]tetrachloroplatinum(IV), CHEMBL2146191",15.1
6,"[Bis(aminomethyl)pentamethylenesilane]tetrachloropaltinum(IV), CHEMBL2146204",9.75
7,"[Bis(aminomethyl)pentamethylenesilane]dichloropaltinum(II), CHEMBL2146202",4.37
8,"[Bis(aminomethyl)dimethylsilane]dichloroplatinum (II), CHEMBL2146201",62.8
9,"[Bis(aminomethyl)dimethylsilane]tetrachloroplatinum(IV), CHEMBL2146190",15.8
10,"CISPLATIN, CHEMBL11359",6.32
11,"[Bis(aminomethyl)tetramethylenesilane]dichloropaltinum(II), CHEMBL2146205",80.9
